B1: chr19:7926739:7926850:-|3pUTR|ENSG00000104980|unk|total|mutant (ssRNA)
RNA: GGGAGUUCUACAGUCCGACGAUCAGGGUGGGACCCGGGACCCGCGGCUCAGUGGCCCGCCCGCCACGUCAGCCAAGCCACUUCCGGUCCAUUUUUUAAUUUUAACAGUGCUCUUCCAUCUUGUGCAUAAGCCUGAGAUUUGGACAACAGAGGAUUGAGCAUCA
B2: chr20:37241422:37241523:+|3pUTR|ENSG00000118705|msi1_unk|FALSE|overlapping (ssRNA)
RNA: GGGAGUUCUACAGUCCGACGAUCGUAUGAGAAGAAAAAUGGAAAAAAAAAACUUUAUUUAAAAAAGAAAAAAGUCCAGAUUGUAGUUAUACUUUUGCUUGUUUUUCAGUUUCCCCAACACACAGCAGAUACCUGGUGAGCUCACAACAGAGGAUUGAGCAUCA
B3: chr10:72012227:72012328:+|3pUTR|ENSG00000122863|msi1|FALSE|unique (ssRNA)
RNA: GGGAGUUCUACAGUCCGACGAUCCAAUGGAAGGAGCUUCAGCAGGAGGUCCUUCCCAGAAGGUUGAUUCUUGGCCUGGGUGGUAGAGGAGAUAUCCUGACCCUAAAGUCUUCCAGCCCCGGGUCAUCCUCUCCUAUACUAGGGCAACAGAGGAUUGAGCAUCA
B4: ENSG00000173273:stop:overlap|stop_codon|ENSG00000173273|stop_codon|NA|stop_codon (ssRNA)
RNA: GGGAGUUCUACAGUCCGACGAUCACCAGAUCAUGAAGCCAGAAGCCCCUUCCCAGACCGCAACAGCCGCAGAGCAGAAGACCUAGUGAAUGCCUGCUGGUGAAGGCCAGAUCAGAUUUCAACCUGGGACUGGAUUACAGAGGACAACAGAGGAUUGAGCAUCA
B5: chr13:24434660:24434761:-|CDS|ENSG00000102699|unk|total|mutant (ssRNA)
RNA: GGGAGUUCUACAGUCCGACGAUCCCCUCUGCUUCCUCUCCUUUUCAUUUUCAACCUUCCGCAGCCUCUUUGACUGCCAACCUCCGGCUGCCAAUGGCCUCUGCUUUACCUGAGGCUCUUUGCAGUCAGUCCCGGACUACCCCACAACAGAGGAUUGAGCAUCA
B6: ENSG00000112335:stop:overlap|stop_codon|ENSG00000112335|stop_codon|NA|stop_codon (ssRNA)
RNA: GGGAGUUCUACAGUCCGACGAUCAGGCAAGGAGUCAUGGAAGGACGUGGUGUGCUCAGAAUGAUGAAAAGUUAUUUUGUGACUAGAAAGUCGUAGUUCCCCCGCUCCCUGGGAAAGCGUUUUUGCGUCAGCUUCCUUUUAGAGCAACAGAGGAUUGAGCAUCA
B7: chr15:63774837:63774950:-|CDS|ENSG00000103657|unk|total|mutant (ssRNA)
RNA: GGGAGUUCUACAGUCCGACGAUCGUAACAACAUUUCUUAAAGGAGUCACUAUUCCUAAUUCUGGGGCAGACACUUCCGGUCGCCGAUCCGCUUCUGAGUUGCUGCUUGGUUUGGCAGCUCAACGAGGCUCAUUGCGAUAUCUUCAACAGAGGAUUGAGCAUCA
B8: chr1:158329851:158330130:-|CDS|ENSG00000158485|control|control|control (ssRNA)
RNA: GGGAGUUCUACAGUCCGACGAUCCAUAGCAGGCUGUGAGCUACAUUCUGGAGGUGCCAUAGUAAGCUUCCUGAGGGGAGCUCUAGGAGGAUUGGAUUUCCUGAGUGUCAAGAAUGCUUCAUGUGUGCCUUCCCCAGAAGGUGGCAACAGAGGAUUGAGCAUCA
B9: chr8:18529670:18529771:-|3pUTR|ENSG00000156011|msi1|FALSE|bound_elsewhere (ssRNA)
RNA: GGGAGUUCUACAGUCCGACGAUCUAAAGCCAUGGAGUUUAUAAAGCCAAGUAACCAUUUGAUAUGGAUAAUAAUAUCUACUCUAGAGAGAGUAUAUAUAUGCACAUUGAUUUUUAAUGCUGUUAAGAUACUUUUGUAAAACUGCAACAGAGGAUUGAGCAUCA
B10: chr2:209733988:209734100:+|3pUTR|ENSG00000078018|unk|FALSE|unique (ssRNA)
RNA: GGGAGUUCUACAGUCCGACGAUCUCUGAUAAUUCUAGAGCCUGUUACCAUAGAAAGGCAUUUCUUCAAUGGCUGGUUGUAGUUAGUUCAUGUUUUUCAAUCAAAUUUGCAAAUGUAUUUGUUGCUGUAUAGUGAUUGUUUUGCCAACAGAGGAUUGAGCAUCA
B11: chr6:108211900:108211976:-|3pUTR|ENSG00000112335|msi1_unk|FALSE|overlapping (ssRNA)
RNA: GGGAGUUCUACAGUCCGACGAUCGUUGACAAGAAGUUAAUUUGCUUUAGUAAAAAUCCCUCAUUCCAGCCUUUCUAUAUAAAUAGCUCUUUCUUGCUGUUUUAAUGUGGUGCACACUAUAGCCUCACAAACCUGUUAUUCCAGCAACAGAGGAUUGAGCAUCA
B12: chr7:20412070:20412171:+|3pUTR|ENSG00000105855|msi1|FALSE|unique (ssRNA)
RNA: GGGAGUUCUACAGUCCGACGAUCCUUUUUUUUUAUAAUAAACUUCCAAGAUUUGCUGUCUUCCAGCACUUGAGUUAAAGUACUAGAUACUGCAUUUUGAUGAAGACUAACCCCAUCUCAUAUUCUACCCUAAAGAGAACUGAACAACAGAGGAUUGAGCAUCA
B13: ENSG00000198589:be:win_5051|CDS|ENSG00000198589|bound_else_gene|NA|bound_elsewhere_windowed (ssRNA)
RNA: GGGAGUUCUACAGUCCGACGAUCGCUUGGUUAACAUACCAGCAGAUGGAGUCACAGUGGAUCCUGCCCUUCUGCCACCAGCCUGCCUUGGAGCCCUUGGUGAUCUAUCUGUGGAACAACCCGUGCAGUUCAGAUCUUUUGACACAACAGAGGAUUGAGCAUCA
B14: chr8:81702113:81702224:-|3pUTR|ENSG00000104231|unk|total|mutant (ssRNA)
RNA: GGGAGUUCUACAGUCCGACGAUCGUACCGCCUUGCUGUCUGUCUACAUCAUGAUGUAUAAAUUGAUAUAUCUACAUGAAUUACCGAAACUCCGAAGUGAUCUUUAUUCAGUCUUAUAAUUUUUACAUGAAGAAUCUCCGGCCUCAACAGAGGAUUGAGCAUCA

This is one part of the list.

This experiment addresses MSI1 full-length (mouse, UniProt Q61474 1-362). Description: nsRBNS (natural sequence RNA bind-n-seq); RBNS binding buffer (assumed for nsRBNS): 25 mM Tris pH 7.5, 150 mM KCl, 3 mM MgCl2, 0.01% Triton X-100, 500 ug/ml BSA, 20 U/ml SUPERase-In, 4 C; UNK is unkempt and MSI1 is Musashi-1; names of the RNAs are library labels; protein concentration not given here; high values mean tight binding.
Sequence of UniProt Q61474 (Q61474 whole entry): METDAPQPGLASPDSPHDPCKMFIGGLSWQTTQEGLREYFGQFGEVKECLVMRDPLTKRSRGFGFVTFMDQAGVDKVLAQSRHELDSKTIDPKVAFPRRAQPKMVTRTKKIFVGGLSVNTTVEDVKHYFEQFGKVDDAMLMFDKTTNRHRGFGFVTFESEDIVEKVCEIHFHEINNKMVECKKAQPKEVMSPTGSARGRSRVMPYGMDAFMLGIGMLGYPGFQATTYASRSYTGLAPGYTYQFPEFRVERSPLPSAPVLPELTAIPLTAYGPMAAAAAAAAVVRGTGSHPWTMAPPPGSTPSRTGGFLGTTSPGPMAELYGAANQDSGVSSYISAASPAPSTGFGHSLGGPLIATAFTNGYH
B1 yielded a binding signal of 0.477 enrichment R.
B2 gave a binding signal of 1.41 enrichment R.
The result for B3 reads 0.344 enrichment R; that for B4, 1.3 enrichment R; that for B5, 0.763 enrichment R.
The molecule B6 had a binding signal of 0.354 enrichment R.
With B7, the binding signal came out at 0.406 enrichment R.
B8 displayed a binding signal of 0.498 enrichment R.
For the molecule B9, the binding signal came out at 0.574 enrichment R.
Take B10: the binding signal is 2.97 enrichment R.
Molecule B11 yielded a binding signal of 1.23 enrichment R.
On to B12, for which the binding signal stood at 0.785 enrichment R.
As to B13, the binding signal stood at 0.536 enrichment R.
B14: the binding signal came out at 0.94 enrichment R.

The record behind these values is paper PMC12136788.
